The source of these data is PubChem BioAssay AID488969 (Vanderbilt High Throughput Screening Facility, 2010).

The full ranking holds about 110,000 compounds; the median of “z-score” is about -0.1, and the highest 2% start at about 2. Some of the results follow.

The assay has as its target Metabotropic glutamate receptor 8 (Rattus norvegicus) (UniProt P70579). Nature of the assay: mGluR8 Gi/Go-coupled signaling modulation – cell-based, rat, thallium flux, HTS, primary screen (AID 488969). Particulars: HEK293 rat mGluR8, GIRK (G protein-gated inwardly rectifying potassium channel) thallium flux, FluoZin2; at 10 µM; stronger effect = higher value; submaximal glutamate (EC20) added with thallium.
UniProt P70579, sequence (P70579 whole entry, looked up): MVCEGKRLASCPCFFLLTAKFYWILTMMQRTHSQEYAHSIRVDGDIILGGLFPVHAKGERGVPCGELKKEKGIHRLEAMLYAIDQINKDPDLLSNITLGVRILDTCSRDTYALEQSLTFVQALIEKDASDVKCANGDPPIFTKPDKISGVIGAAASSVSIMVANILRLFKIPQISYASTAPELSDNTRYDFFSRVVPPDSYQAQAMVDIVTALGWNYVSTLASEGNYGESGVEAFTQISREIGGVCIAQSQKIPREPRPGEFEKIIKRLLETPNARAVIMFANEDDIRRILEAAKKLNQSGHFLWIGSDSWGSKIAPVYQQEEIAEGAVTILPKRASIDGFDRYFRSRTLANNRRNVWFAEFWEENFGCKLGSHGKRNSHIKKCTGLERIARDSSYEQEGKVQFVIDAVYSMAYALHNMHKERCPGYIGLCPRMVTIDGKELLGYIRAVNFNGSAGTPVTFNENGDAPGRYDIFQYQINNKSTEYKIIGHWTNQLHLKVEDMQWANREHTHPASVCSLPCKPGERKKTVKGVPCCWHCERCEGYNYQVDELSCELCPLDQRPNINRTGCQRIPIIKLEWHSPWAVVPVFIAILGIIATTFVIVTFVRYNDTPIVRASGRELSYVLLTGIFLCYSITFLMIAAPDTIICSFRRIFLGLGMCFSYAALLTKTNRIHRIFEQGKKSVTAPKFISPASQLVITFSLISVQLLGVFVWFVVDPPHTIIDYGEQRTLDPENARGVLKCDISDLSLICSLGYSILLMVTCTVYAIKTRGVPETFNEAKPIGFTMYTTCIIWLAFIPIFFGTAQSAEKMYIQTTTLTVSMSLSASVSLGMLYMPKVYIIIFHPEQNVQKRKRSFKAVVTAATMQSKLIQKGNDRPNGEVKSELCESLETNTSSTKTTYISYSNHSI
`Cc1ccc(N=C2NC(=O)CS2)c(C)c1` registered a z-score of -0.0325.

`CN(C(=O)COC(=O)COc1ccc(Cl)cc1)C1CCCCC1` registered a z-score of -1.21.

Take `CC(/C=N/NC(=O)CSc1nnc(SCc2ccccc2)s1)=C\c1ccco1`: the z-score was -0.249.

`Cc1ccc(-n2[nH]c(C)c(C=NC34CN5CN(CN(C5)C3)C4)c2=O)cc1C` gave a z-score of -0.126.

In the case of `Cc1ccc(C2CC(=O)Nc3cc4c(cc32)OCO4)o1` (stereo not drawn), the z-score was -0.134.

With `CCOC(=O)Cc1csc(NC(=O)c2ccc(Cl)nc2)n1`, the z-score was 0.0254.

For `CCn1c(SCC(=O)N/N=C/C=C/c2ccccc2[N+](=O)[O-])nnc1-c1ccccc1`, the z-score was -0.243.

As to `CCOC(=O)C1CCCN(C(=O)CN2CCN(Cc3ccc(Cl)cc3)C2=O)C1` (stereo not drawn), the z-score is -0.371.

As for `Cc1cc(=O)n(C)c(=O)n1CCCNc1ccccc1`, the z-score amounted to 0.349.

In turn, `CCSc1cc(N2CC(C)OC(C)C2)nc(-c2ccccc2Cl)n1` (stereo not drawn) showed a z-score of -0.199.

The molecule `Cc1ccc(S(=O)(=O)NCCCN(C)C)cc1` registered a z-score of 2.95.

On to `N#Cc1c(-c2ccc(Cl)cc2Cl)nc2n(c1=O)CCS2`, for which the z-score is -0.773.

With `Cc1ccc(-n2nnnc2SCC(=O)NNC(=O)c2ccco2)cc1C`, the z-score is -0.193.

In turn, `COC(=O)c1cc2ccsc2n1Cc1nc(-c2ccc(OC)cc2)oc1C` registered a z-score of -0.672.

`COc1ccc(N2C(=O)CC(N3CCN(c4ccc(S(C)(=O)=O)cc4)CC3)C2=O)cc1` (stereo not drawn) registered a z-score of 0.0874.

In turn, `CNC(=O)c1sc(SC)cc1-c1ccc(Cl)cc1` gave a z-score of -0.487.

`N#C/C(=C\c1c(Cl)cccc1Cl)c1nc2ccccc2o1` yielded a z-score of -0.471.

Regarding `COc1ccccc1NC(=O)CSc1nc2ccccc2cc1Cc1ccccc1`, the z-score was -0.195.

Regarding `COC(=O)c1c(NC(NC(=O)C(C)(C)C)C(Cl)(Cl)Cl)sc2c1CCC2` (stereo not drawn), the z-score was -0.0333.

Regarding `CCCCN(CC)C(=O)c1ccc2c(c1)OCO2`, the z-score was -0.883.

For the molecule `Cc1ccccc1-n1c(SCc2ccccn2)nc2n[nH]c(C)c2c1=N`, the z-score was -2.33.

On to `COCCN(Cc1cc2cc(C)cc(C)c2nc1Cl)C(=O)Nc1ccccc1`, for which the z-score was -0.621.

As for `CC1(C)Cc2c(ccc3ccccc23)/C(=C/C#N)N1`, the z-score was -0.163.

`O=C(Cc1ccc(-n2cccc2)cc1)N1CCN(c2ccccc2F)CC1` returned a z-score of -0.527.

Consider `O=C(Nc1ccc(Cl)cn1)c1ccccc1F`, for which the z-score was 0.159.

Take `COc1ccc(-n2c(N)c(C(=O)NCc3ccco3)c3nc4ccccc4nc32)cc1`: the z-score was -0.202.

Take `Cc1ccc(-n2c(C)cc(/C=N/NC(=O)CN(c3ccc(C)cc3C)S(C)(=O)=O)c2C)cc1`: the z-score stood at 0.00989.

Regarding `CCC1CCCCN1CCCNC(=O)C1CCN(S(=O)(=O)N2CCCCC2)CC1` (stereo not drawn), the z-score was 1.23.

Consider `Cc1ccccc1-c1nc(CN2CCC(C(=O)NCc3cccnc3)CC2)c(C)o1`, for which the z-score turned out to be 0.023.

In turn, `O=C(c1ccc([N+](=O)[O-])cc1)N1CCN(C(=O)c2cccs2)CC1` registered a z-score of 0.0319.

`O=C(COc1ccc(Cl)cc1)NCc1nnc(SCC(=O)NC2CCCC2)o1` returned a z-score of 0.0955.

In the case of `Cc1ccc(CNC(=O)CN2CCN(Cc3ccc(Cl)cc3)C2=O)cc1`, the z-score was found to be 0.18.

For the molecule `CCOc1ccc(N(CC)C(=O)COc2cc(=O)n(CC)c3ccccc23)cc1`, the z-score was -0.88.

The molecule `CNC(=O)C1CCCN1S(=O)(=O)c1ccc(OC)cc1` (stereo not drawn) showed a z-score of -0.204.

Molecule `Cc1csc(NC(=O)CCNC(=O)c2ccc([N+](=O)[O-])cc2)n1` registered a z-score of 0.939.

Take `CN(C)S(=O)(=O)c1ccc(NC(=O)COc2ncnc3c2cnn3-c2ccccc2)cc1`: the z-score was -0.521.

The molecule `O=C(NC1CCCCC1)c1cc2nc(-c3ccco3)cc(C(F)(F)F)n2n1` displayed a z-score of 0.238.

Consider `Cn1c(CN2CCOCC2)nnc1SCC(=O)NC1CCCCC1`, for which the z-score was -0.936.

`N#CC1=C(SCC(=O)Nc2ccccc2)NC(=O)CC1c1ccco1` (stereo not drawn) showed a z-score of -1.22.

In turn, `O=C(NCc1ccc(N2CCCC2=O)cc1)Nc1cccc2ccccc12` returned a z-score of -0.109.

In the case of `CCCCn1c(SCc2nc3ccccc3s2)nc2cc(S(N)(=O)=O)ccc21`, the z-score is -0.0671.

`COc1cccc(C(=O)OCCCN(C)C)c1` gave a z-score of 0.592.

In turn, `O=C(CSc1nnnn1C1CCCC1)NCc1ccc2c(c1)OCO2` registered a z-score of 0.249.

Molecule `O=C(COC(=O)c1ccccc1S(=O)(=O)N1CCCCC1)NCC(F)(F)F` showed a z-score of 0.315.

Consider `CC(O)C1CCC2C3CC[C@H]4CC(O)CCC4(C)C3CC3(OCCO3)C12C` (stereo partly drawn), for which the z-score came to 0.165.

Molecule `O=C(O)/C(=C\c1cccc(F)c1)c1ccc(S(=O)(=O)N2CCCCC2)s1` showed a z-score of -1.42.

`CCOC(=O)c1c(C)[nH]c(C)c1C(=O)COC(=O)c1ccccc1O` returned a z-score of 0.517.

In the case of `CCOC(=O)COc1ccc(S(=O)(=O)NCC2CCCO2)cc1` (stereo not drawn), the z-score stood at 0.355.

The molecule `O=C(COC(=O)CN1C(=O)C2CC=CCC2C1=O)Nc1cc(C(F)(F)F)ccc1N1CCOCC1` (stereo not drawn) displayed a z-score of 0.545.

For `COc1ccc(C(=O)/C=C/c2ccccc2OC)c(OC(=O)c2ccc([N+](=O)[O-])cc2)c1`, the z-score is -0.041.

Molecule `O=C(CSc1nc2ccccc2c(=O)n1-c1ccc(Cl)cc1)c1ccco1` showed a z-score of 0.876.

With `CC(C)C[C@H](NC(=O)OC(C)(C)C)c1n[nH]c(=S)n1N`, the z-score worked out at 0.357.

Molecule `CCOc1ccc(S(=O)(=O)n2ccnc2)c2ccccc12` registered a z-score of -0.173.

In turn, `COC(=O)C1=C(N)Oc2cc(C)[nH]c(=O)c2C1c1ccncc1` (stereo not drawn) came in with a z-score of 0.316.

For the molecule `Cc1cc(NC(=O)CSCCO)no1`, the z-score is 0.0318.

`Cc1nc2ccc(S(=O)(=O)NCC(=O)N3CCc4ccccc4C3)cc2s1`: the z-score came out at 0.0372.

As for `Cc1cccn2cc(CNc3ccccc3)nc12`, the z-score was -0.0695.

The molecule `O=C(Cc1cccs1)Nc1ccc(Cl)cc1` gave a z-score of 0.318.

In turn, `Cc1c(C(=O)Nc2ccccc2)sc2nc[nH]c(=O)c12` showed a z-score of -0.184.

Regarding `COC(=O)CSc1nc(C)cc(Oc2ccccc2)n1`, the z-score was -0.406.

`Cc1ccc(N2C(=O)C3C4CC(=O)C(c5ccccc54)C3C2=O)cc1` (stereo not drawn) yielded a z-score of 0.0115.

`COc1ccccc1NC(=O)c1cc(S(=O)(=O)N2CCOCC2)ccc1Cl`: the z-score was -0.185.

The molecule `COc1ccc(C2CC(c3ccc4ccccc4c3)=NN2C(=O)CSc2ncccn2)cc1` (stereo not drawn) came in with a z-score of -0.214.

On to `CC1CCCCN1C(=O)CSc1nnc(-c2ccc(Cl)s2)o1` (stereo not drawn), for which the z-score was -0.789.

For `Cc1c(-c2ccccc2)nc2ccccc2c1C(=O)OCC(=O)Nc1ncc(C(F)(F)F)cc1Cl`, the z-score is 0.00577.

`Cc1ccccc1-c1nnc(SCC(=O)NC2CCCCC2)o1` came in with a z-score of -0.392.

Consider `CCc1nnc(NC(=O)CSc2nc3ccccc3o2)s1`, for which the z-score was -0.0157.

For the molecule `COc1ccc(/C=N/NC(=O)CNc2n[nH]c(=O)[nH]c2=O)cc1OC`, the z-score is 0.124.

The molecule `COc1ccc(CN(C(=O)CN2C(=O)COc3ccccc32)C2CCCC2)c(OC)c1` registered a z-score of 0.103.

Molecule `O=C(Cn1ncc2c1-c1ccccc1OC2)N1CCN(c2ccccn2)CC1` came in with a z-score of 0.0305.

Molecule `Cc1ccc(S(=O)(=O)N2CCCOC2CNC(=O)C(=O)NCCc2c[nH]c3ccccc23)cc1` (stereo not drawn) yielded a z-score of -0.2.

With `Cc1ccc(C(=O)CSc2nnc(-c3c[nH]c4ccccc34)o2)cc1`, the z-score is -0.00485.

As to `Cc1cccc(N2CCN(C(=O)Cn3cnc4c3c(=O)n(C)c(=O)n4C)CC2)c1C`, the z-score was -0.973.

Regarding `COc1cc(OC)cc(C(=O)NCCSCc2ccco2)c1`, the z-score is 0.229.

Consider `S=C(Nc1cccc(Br)c1)c1ccccc1`, for which the z-score stood at 1.85.

Molecule `CCCCCOc1ccc(N2C(=O)C3C4C=CC(C3C2=O)N(C)C4=O)cc1` (stereo not drawn) registered a z-score of -0.0236.

`Cc1ccc(NC(=O)Cn2c(O)c(N=NS(=O)(=O)c3ccc(C)cc3)c3ccccc32)cc1`: the z-score is -0.179.

Molecule `CCN(CC)C(=O)c1sc(N)c(C(=O)OC(C)C)c1C` displayed a z-score of -0.929.

The molecule `CCn1c2ccccc2c2cc(NC(=O)CSc3nnc(C4CC4)n3Cc3ccco3)ccc21` registered a z-score of 0.385.

`COc1cc(C2C(C#N)=C(N)N(c3sc4c(c3C#N)CCCC4)C3=C2C(=O)CC(C)(C)C3)cc(OC)c1OC` (stereo not drawn) returned a z-score of -0.451.

On to `Cn1c(SCC(=O)N2CCN(c3ccccc3)CC2)nnc1-c1ccco1`, for which the z-score worked out at 0.14.

As for `O=C(CSc1nc(-c2ccccc2)cc(C(F)(F)F)n1)NCc1ccco1`, the z-score was -0.00949.

`N/C(=N\OC(=O)c1ccc(Cl)cc1)c1ccccn1` had a z-score of -0.296.

`Cc1ccccc1NC1C=CS(=O)(=O)C1` (stereo not drawn) showed a z-score of -0.358.

On to `CCc1nnc(NC(=O)c2ccc(S(=O)(=O)N(CC)CC)cc2)s1`, for which the z-score was -0.43.

For `COc1ccc(Nc2nc(-c3ccccc3)cs2)cc1`, the z-score was -0.21.

`CCOC(=O)c1c(-c2ccc(OC)cc2)csc1NC(=O)COc1ccc2c(C)cc(=O)oc2c1` showed a z-score of -0.148.

In turn, `Cc1cc(C(=O)N(C)C)sc1-c1ccccc1` yielded a z-score of -0.146.

Turning to `Cc1cc(C)n(S(=O)(=O)c2cc(C(=O)O)c(Cl)cc2Cl)n1`, the z-score is -0.129.

As for `Cc1ccccc1NCN1C(=O)C2C3C=CC(C3)C2C1=O` (stereo not drawn), the z-score was -0.234.

In turn, `COc1cccc(CNC(=O)Cn2c(=O)oc3ccccc32)c1OC` yielded a z-score of -0.299.

`CCOC(=O)c1ccccc1NC(=O)/C=C/c1cc(OC)c(OC)c(OC)c1` displayed a z-score of -0.542.

`O=C(CSc1nnc(-c2ccco2)n1CC1CCCO1)N1CCCCC1` (stereo not drawn): the z-score worked out at 0.298.

In turn, `COc1ccc(N=c2cc(-c3ccc(OC)cc3)oc3ccccc23)cc1` gave a z-score of -0.0327.

Regarding `Cc1ccc(N2C(=O)C3CC(c4ccccc4)=C4C5C=CC(C6C(=O)N(c7ccc(C)cc7C)C(=O)C56)C4C3C2=O)c(C)c1` (stereo not drawn), the z-score stood at 0.179.

Turning to `O=C(Nc1ccc(Cl)cn1)c1cccc(F)c1`, the z-score worked out at 0.192.

In turn, `CCOC(=O)C1CCCN(C(=O)c2cc3nc(-c4cccc(OC)c4)cc(C(F)(F)F)n3n2)C1` (stereo not drawn) displayed a z-score of -0.347.

In the case of `CC(C)C(OC(=O)c1cccs1)C(=O)NC1CCCCC1` (stereo not drawn), the z-score worked out at 0.219.

In turn, `CC(C)c1ccc(S(=O)(=O)c2n[nH]n3c2nc(=O)c2ccccc23)cc1` returned a z-score of 2.66.

The molecule `Cc1ccccc1Nc1nc(N)nc(COC(=O)c2ccc(S(=O)(=O)N(C)C)cc2)n1` registered a z-score of -0.0781.

`COc1ccc(NC(=O)CCN2CCN(S(=O)(=O)c3cc(Cl)ccc3OC)CC2)cc1` returned a z-score of -0.139.

`COc1nc(OC)nc(N2CCC(C(=O)Nc3cccc4c3CCCC4)CC2)n1`: the z-score is -0.455.

As for `COc1cccc(NC(=O)Cn2nnc(C(=O)Nc3ccccc3)c2N)c1`, the z-score is 0.726.

Molecule `Cc1c(NC(=O)c2noc3c2CCc2ccccc2-3)c(=O)n(-c2ccccc2)n1C` returned a z-score of -0.471.

Molecule `NC(=O)COc1ccc(NC(=O)OCc2ccccc2)cc1` gave a z-score of -0.0293.

As to `CCOC(=O)c1ccc(NC(=O)C2(c3ccc(OC)cc3)CCOCC2)cc1`, the z-score was found to be 0.831.

The molecule `O=c1c2c3c(sc2nc2n1CCCC2)CCCC3` came in with a z-score of -0.196.

On to `O=c1oc2ccccc2c2c1ncn2-c1ccccc1`, for which the z-score is -1.46.
